Data published in PubChem BioAssay AID2147 (National Center for Advancing Translational Sciences (NCATS), 2009).
Several values for one entry are separate records, joined by “and”; a condition that tells them apart may be missing. Identical values can stand only once. Among all 230,000 compounds or so, about 3,600 (1.6%) were called active. This list was built around the results that the source calls inconclusive (neither active nor inactive); the mix of calls is not that of the screen. Calls follow the shape of the dose curve; as a rule, active = well fitted inhibition curve with a large enough effect (not every such curve was filed as active); inconclusive = small, poorly fitted or top-dose-only effect, or another doubt; inactive = no such curve, though single readings can be large or run the other way. Potencies of inconclusive entries are doubtful fits and often do not repeat.

What follows are molecules tested against Lysine-specific demethylase 4E (Homo sapiens) (UniProt B2RXH2) (assay: qHTS Assay for Inhibitors of Human Jumonji Domain Containing 2E (JMJD2E)). Settings: JMJD2E catalytic domain, FDH-coupled NADH fluorescence (FDH is formaldehyde dehydrogenase); series mostly up to 57.1 µM; activity change, negative = inhibition: at the top concentration.
Also: nearly all actives have a fitted effect of over 50% in size.
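For activity change, negative = inhibition in this document: 0% = wells with enzyme and -100% = buffer wells without enzyme.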
Potency is read from the fitted curve at half-maximal effect; tags tell the direction and shape of the fitted curve.

Chain of UniProt B2RXH2 (B2RXH2 whole entry, looked up, the tested form may be a part): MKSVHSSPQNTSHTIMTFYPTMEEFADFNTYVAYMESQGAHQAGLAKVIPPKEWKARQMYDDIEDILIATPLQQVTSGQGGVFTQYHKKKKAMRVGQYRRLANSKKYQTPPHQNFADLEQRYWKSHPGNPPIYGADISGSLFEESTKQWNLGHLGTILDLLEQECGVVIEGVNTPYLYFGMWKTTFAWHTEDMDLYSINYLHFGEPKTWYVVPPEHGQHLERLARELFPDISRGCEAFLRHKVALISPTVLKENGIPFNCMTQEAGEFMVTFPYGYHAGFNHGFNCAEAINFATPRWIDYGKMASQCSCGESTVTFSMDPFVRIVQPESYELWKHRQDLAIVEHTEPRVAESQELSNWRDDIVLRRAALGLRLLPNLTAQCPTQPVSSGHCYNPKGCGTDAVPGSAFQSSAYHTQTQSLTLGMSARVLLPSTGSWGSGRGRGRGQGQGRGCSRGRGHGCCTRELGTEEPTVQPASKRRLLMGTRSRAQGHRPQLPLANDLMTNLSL

Q: Which Potency does the source give for `CCN(CC)CCOC(=O)C1(c2ccc([N+](=O)[O-])cc2)CCCC1` here?
A: inactive

Q: Which Potency does the source give for `O=C(O)c1cn(C2CC2)c2cc(N3CCN(S(=O)(=O)c4ccc5c(c4)OCCO5)CC3)c(F)cc2c1=O` here?
A: inconclusive: 28.2 µM [inhibitor, partial curve]

Q: How did the Potency turn out when `Cc1ccc(C(=O)/C=C/c2cn(CN3CCN(C)CC3)c3ccccc23)cc1` was run?
A: inconclusive: 25.1 µM [inhibitor, single point]

Q: `O=C1c2oc3ccccc3c(=O)c2C(c2cccc(F)c2)N1CCCO` (stereo not given) was tested. Which “activity change, negative = inhibition” value did it give?
A: inactive: -8.5%

Q: How did the Potency turn out when `COc1ccc(-c2cc(=Nc3c(C)n(C)n(-c4ccccc4)c3=O)c3ccccc3o2)cc1` was run?
A: inconclusive: 28.2 µM [inhibitor, partial curve]

Q: For `CCOC(=O)C1=C(C)Nc2nc(SCC)[nH]c(=O)c2C1c1ccncc1` (stereo not given), which Potency is on record?
A: inconclusive: 39.8 µM [inhibitor, single point]

Q: Which Potency does the source give for `CCOC(=O)C1CCN(S(=O)(=O)c2cccc(-c3cn4cc(C)ccc4n3)c2)CC1` here?
A: inconclusive: 35.5 µM [inhibitor, partial curve]

Q: Which Potency does the source give for `COC(=O)/C=c1/sc2n(c1=O)CCN=2` here?
A: inconclusive: 28.2 µM [inhibitor, partial curve]

Q: With `COc1ccc(-c2cn3cc(C(=O)NN)ccc3n2)cc1` as the molecule, how does the Potency read?
A: inconclusive: 28.2 µM [inhibitor, partial curve]

Q: `O=C(O)CCc1ccc(-c2ccccc2)n1NC(=O)c1ccco1` was tested. Which Potency did it give?
A: inconclusive: 35.5 µM [inhibitor, single point]

Q: Which Potency does the source give for `Cc1nnsc1-c1nc2ccccc2[nH]1` here?
A: inconclusive: 28.2 µM [inhibitor, partial curve]

Q: For `CCc1ccc(C(=O)Cn2ncc(Cl)c(Cl)c2=O)cc1`, which “activity change, negative = inhibition” value is on record?
A: inactive: 2.32%

Q: How did the “activity change, negative = inhibition” value turn out when `O=C(O)CSCc1nc2scc(-c3ccccc3)c2c(=O)[nH]1` was run?
A: inactive: -7.72%

Q: How did the “activity change, negative = inhibition” value turn out when `CCOC(=O)c1cnc(-n2nc(C)cc2C)nc1N1CCOCC1` was run?
A: inactive: -11.3%

Q: For `Cc1ccccc1NC(=O)Cn1c(C)nc2ccc(N)cc2c1=O`, which Potency is on record?
A: inconclusive: 31.6 µM [inhibitor, partial curve]

Q: With `Cc1cc(C(=O)NC2CCCCC2)on1` as the molecule, how does the “activity change, negative = inhibition” value read?
A: inactive: 0.698%

Q: `CCOC(=O)c1sc(NC(=O)CSc2n[nH]c(-c3ccc(Cl)cc3Cl)n2)c(C#N)c1C` was tested. Which “activity change, negative = inhibition” value did it give?
A: inactive: -16.2%

Q: `CCOC(=O)N1CCN(C(=O)CN(Cc2ccccc2)S(=O)(=O)c2ccc(OC)c(Cl)c2)CC1` was tested. Which Potency did it give?
A: inconclusive: 39.8 µM [inhibitor, single point]

Q: `COc1ccc2nc(NC(=O)c3cccc(-c4cc5ccccc5oc4=O)c3)sc2c1` was tested. Which Potency did it give?
A: inconclusive: 31.6 µM [inhibitor, partial curve]

Q: `COc1ccc(-n2c(C)nc3cc(C(=O)N4CCOCC4)ccc32)cc1` was tested. Which “activity change, negative = inhibition” value did it give?
A: inactive: 0.354%

Q: How did the Potency turn out when `COc1ccccc1-c1c(NC(=O)C(C)C)n(C)c2ccccc2c1=O` was run?
A: inconclusive: 25.1 µM [inhibitor, partial curve]

Q: With `O=C(N/N=C/c1cccnc1)c1ccc([N+](=O)[O-])cc1Cl` as the molecule, how does the Potency read?
A: inconclusive: 39.8 µM [inhibitor, single point]

Q: `CN(C)CCCN1c2ccccc2CCc2ccc(Cl)cc21` was tested. Which Potency did it give?
A: inconclusive: 39.8 µM [inhibitor, single point]

Q: With `c1ccc2cc3[nH]c(CN4CCCCC4)nc3cc2c1` as the molecule, how does the Potency read?
A: inconclusive: 39.8 µM [inhibitor, single point]

Q: `CC(OC(=O)c1ccc([N+](=O)[O-])s1)C(=O)Nc1ncc(Cl)cc1Cl` (stereo not given) was tested. Which “activity change, negative = inhibition” value did it give?
A: inactive: -1.99%

Q: For `COc1ccc2oc3cc(C)[n+]([O-])c(-c4ccc(Br)cc4)c3c2c1`, which Potency is on record?
A: inconclusive: 14.1 µM [inhibitor, partial curve]

Q: Which Potency does the source give for `O=[N+]([O-])c1ccc(Cc2nnc(-c3ccccc3Cl)o2)cc1` here?
A: inconclusive: 39.8 µM [inhibitor, single point]

Q: With `O=C(c1ccc(CSc2nc3ccncc3[nH]2)cc1)N1CCCCC1` as the molecule, how does the “activity change, negative = inhibition” value read?
A: inactive: -26%

Q: How did the Potency turn out when `Nc1nnc(-c2cccnc2)s1` was run?
A: inconclusive: 39.8 µM [inhibitor, single point] and inconclusive: 28.2 µM [inhibitor, single point]

Q: `COC(=O)c1cccc(NC(=O)CC2C(=O)NCCN2C(=O)c2ccc(F)cc2F)c1` (stereo not given) was tested. Which “activity change, negative = inhibition” value did it give?
A: inactive: 2.62%

Q: How did the Potency turn out when `CCC(=O)N1N=C(c2ccc(C)o2)CC1c1ccc(Br)cc1` (stereo not given) was run?
A: inconclusive: 25.1 µM [inhibitor, partial curve]

Q: With `Cn1c(C(=O)Nc2ccc3c(c2)OCO3)cc2c(=O)n(C)c3ccccc3c21` as the molecule, how does the Potency read?
A: inconclusive: 4.47 µM [inhibitor, full curve]

Q: With `O=C(Nc1ncc2c(n1)-c1ccccc1OC2)c1ccc(F)cc1` as the molecule, how does the Potency read?
A: inconclusive: 25.1 µM [inhibitor, partial curve]

Q: With `Cc1c(C(=N)C(C#N)C#N)c(=N)oc2c1ccc1ccccc12` as the molecule, how does the Potency read?
A: inconclusive: 35.5 µM [inhibitor, single point]

Q: Which “activity change, negative = inhibition” value does the source give for `CCC(CC)c1nnc(NC(=O)Cc2ccccc2[N+](=O)[O-])s1` here?
A: inactive: -4.01%

Q: `COCCn1nnnc1C(c1cc2cc(OC)c(OC)cc2[nH]c1=O)N1CCN(c2ccc(O)cc2)CC1` (stereo not given) was tested. Which “activity change, negative = inhibition” value did it give?
A: inactive: 12.7%

Q: With `COc1ccccc1C(=O)C1CCCN(Cc2ccc(Oc3ncccn3)cc2)C1` (stereo not given) as the molecule, how does the Potency read?
A: inconclusive: 15.8 µM [inhibitor, partial curve]

Q: For `CN(C)CCCn1c(=O)n(CCc2ccccc2)c(=O)c2c3c(sc21)CCCCC3`, which “activity change, negative = inhibition” value is on record?
A: inactive: 3.99%

Q: For `COc1cc(OC)c(OC)cc1/C=N/NC(=O)c1ccc(=O)n(C)c1`, which “activity change, negative = inhibition” value is on record?
A: inactive: -21%

Q: For `c1cc(-c2sc(-c3ccncc3)c(-c3ccncc3)c2-c2ccncc2)ccn1`, which Potency is on record?
A: inconclusive: 25.1 µM [inhibitor, partial curve]

Q: Which Potency does the source give for `CCc1ccc2oc(C(=O)NCc3ccc(S(N)(=O)=O)cc3)c(C)c2c1` here?
A: inconclusive: 35.5 µM [inhibitor, single point]

Q: How did the Potency turn out when `Nc1nonc1-n1nnc(C(=O)N/N=C/c2ccc(OCc3ccc(F)cc3)cc2)c1COc1ccccc1` was run?
A: inconclusive: 28.2 µM [inhibitor, partial curve]

Q: With `Cc1c(NC(=O)CCCN2C(=O)c3cccc4cccc(c34)C2=O)c(=O)n(-c2ccccc2)n1C` as the molecule, how does the Potency read?
A: inconclusive: 28.2 µM [inhibitor, partial curve]

Q: How did the “activity change, negative = inhibition” value turn out when `COc1ccc(NC2=NCC(Cc3ccc(Br)cc3)S2)cc1` (stereo not given) was run?
A: inactive: -11.6%

Q: Which Potency does the source give for `Cc1cc2nc(-c3ccc(NC(=O)C(C)C)cc3)oc2cc1C` here?
A: inconclusive: 1.12 µM [inhibitor, full curve]
